# From PubChem BioAssay (Tox21)
# Values joined by “and” are separate entries in the source; they are usually repeats but may differ in a detail not shown here. Identical values can stand only once. Inconclusive results, whose numbers are uncertain, are shown with a selection of clear calls. For some of these results: Potencies beside an inconclusive call are fits to weak or partial responses and may not hold up. Active and inactive are the calls of the source. Unless noted, the call rests on the fitted dose curve; in most records, active means well fitted curve in the direction sought with a large enough effect in the repeat runs; inconclusive means weak or mixed curves; inactive means no such curve, though single readings can be large; an effect the other way counts as inactive or inconclusive.
# Legend:
# [1] = qHTS assay for small molecule agonists of the antioxidant response element (ARE) signaling pathway (AID 743202; active means well fitted activation curve with a large enough effect in the signal ratio in the repeat runs, not every such curve was filed as active; inconclusive means weak or mixed curves, or effect the other way; inactive means no such curve, though single readings can be large or run the other way; the % refers to the signal ratio; on activation: on the % scale 0 is the no-effect control and ±100 the full control effect); details: HepG2 ARE-bla reporter, beta-lactamase FRET, 16 h
# Outline: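 ARE-bla HepG2 cells (beta-lactamase reporter under the antioxidant response element), plated 5 hours, then exposed to compounds 16 hours at 37 C. LiveBLAzer B/G FRET substrate added for 2 hours at room temperature; fluorescence intensity read.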
# [2] = qHTS assay for small molecule agonists of the antioxidant response element (ARE) signaling pathway - cell viability counter screen (AID 743203; calls by dose curve; further: nearly all actives have a fitted effect of over 55% in size); details: ARE-bla HepG2 viability, CellTiter-Glo luminescence, 16 h; viability change, negative = cytotoxic: at 73.3 µM (top of the series)
# Outline: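 CellSensor ARE-bla HepG2 cells, 2,000 per well, rested 5 hrs at 37C/5% CO2, then exposed to compound in DMSO for 16 hrs; viability read as CellTiter-Glo luminescence after 30 min at room temperature, in the reporter wells.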
# [3] = target: Peroxisome proliferator-activated receptor delta (Homo sapiens) (UniProt Q03181); experiment: qHTS assay to identify small molecule antagonists of the peroxisome proliferator-activated receptor delta (PPARd) signaling pathway (AID 743215; active means well fitted inhibition curve with a large enough effect in the signal ratio in the repeat runs, not every such curve was filed as active; inconclusive means weak or mixed curves, or effect the other way; inactive means no such curve, though single readings can be large or run the other way; the % refers to the signal ratio;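 further: cells stimulated with agonist L165041 at 300 nM final during compound exposure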; on ratio activity, negative = inhibition: on the % scale 0 is the no-effect control and ±100 the full control effect); details: HEK293H PPARd-UAS-bla, beta-lactamase FRET ratio, antagonist, 17 h; ratio activity, negative = inhibition: at 62 µM (top of the series) unless noted
# Sequence of UniProt Q03181 (Q03181 whole entry, looked up): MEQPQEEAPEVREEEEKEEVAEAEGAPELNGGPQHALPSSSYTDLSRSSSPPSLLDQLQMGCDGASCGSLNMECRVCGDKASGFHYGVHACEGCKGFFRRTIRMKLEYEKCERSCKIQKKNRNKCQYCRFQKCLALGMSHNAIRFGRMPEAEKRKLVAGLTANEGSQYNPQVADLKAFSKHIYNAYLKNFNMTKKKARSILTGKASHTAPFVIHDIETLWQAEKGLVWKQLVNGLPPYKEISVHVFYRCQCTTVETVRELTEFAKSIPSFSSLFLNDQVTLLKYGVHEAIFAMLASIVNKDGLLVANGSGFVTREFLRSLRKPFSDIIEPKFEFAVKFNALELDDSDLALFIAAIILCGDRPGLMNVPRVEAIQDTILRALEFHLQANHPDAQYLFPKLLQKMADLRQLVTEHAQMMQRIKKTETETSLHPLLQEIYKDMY
# Outline: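 PPARd UAS-bla HEK293H cells were pre-incubated 5 h at 37 C, then given test compounds in DMSO plus agonist L165041 (300 nM final). After 17 h at 37 C, beta-lactamase FRET substrate was added; fluorescence read after 2 h at room temperature.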
# [4] = qHTS assay for small molecule activators of the heat shock response signaling pathway (AID 743210; active means well fitted activation curve with a large enough effect in the signal ratio in the repeat runs, with a control signal flat, not every such curve was filed as active; inconclusive means weak or mixed curves; the % refers to the signal ratio; on activation: on the % scale 0 is the no-effect control and ±100 the full control effect); details: HeLa HSE-bla reporter, beta-lactamase ratio, 5 h; activation: at 62.6 µM (top of the series) unless noted
# Outline: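 HSE-bla HeLa cells (beta-lactamase reporter under heat shock response elements), plated overnight, then exposed to compounds 5 h at 37 C; LiveBLAzer B/G FRET substrate added, 2.5 h at room temperature, fluorescence intensity read.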
# [5] = qHTS assay to identify small molecule agonists of the peroxisome proliferator-activated receptor delta (PPARd) signaling pathway - cell viability counter screen (AID 743211); details: PPARd-bla HEK293H viability, CellTiter-Glo luminescence, 17 h; activity change, negative = cytotoxicity: at 62.6 µM (top of the series) unless noted; further: nearly all actives have a fitted effect of over 55% in size; on activity change, negative = cytotoxicity: on the % scale 0 is the no-effect control and ±100 the full control effect
# Outline: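 qHTS cell viability: PPARd-bla HEK293H; 17 h cpd, 37C; CellTiter-Glo, luminescence at 30 min RT.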
# [6] = target: Peroxisome proliferator-activated receptor delta (Homo sapiens) (UniProt Q03181); experiment: qHTS assay to identify small molecule agonists of the peroxisome proliferator-activated receptor delta (PPARd) signaling pathway (AID 743212; calls by dose curve); details: HEK293H PPARd-UAS-bla, beta-lactamase FRET ratio, 17 h; activation: at 62.6 µM (top of the series) unless noted
# Outline: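 GeneBLAzer UAS-bla HEK293H cells carrying a PPARδ construct were exposed to compounds at 37 °C. Beta-lactamase activity was read by FRET fluorescence after 2 h at room temperature with LiveBLAzer B/G substrate.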
# [7] = qHTS assay for small molecule activators of the heat shock response signaling pathway - cell viability counter screen (AID 743209); details: HSE-bla HeLa viability, CellTiter-Glo luminescence, 5 h; activity change, negative = cytotoxicity: at 62.6 µM (top of the series) unless noted; further: nearly all actives have a fitted effect of over 50% in size
# Outline: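 CellSensor HSE-bla HeLa cells, plated overnight at 37 C/5% CO2, were exposed to compounds in DMSO for 5 h at 37 C. Viability was then read in the same wells by CellTiter-Glo luminescence after 30 min at room temperature.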
# [8] = qHTS assay to identify small molecule antagonists of the peroxisome proliferator-activated receptor delta (PPARd) signaling pathway - cell viability counter screen (AID 743213); details: PPARd-bla HEK293H viability, CellTiter-Glo luminescence, 17 h; viability change, negative = cytotoxic: at 62 µM (top of the series) unless noted; further: nearly all actives have a fitted effect of over 50% in size
# Outline: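 In this counter screen, HEK293H cells carrying a UAS-beta-lactamase reporter are co-treated with test compounds and 300 nM L165041 (final) for 17 h at 37 C; cell viability is quantified by CellTiter-Glo luminescence.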
# [9] = qHTS assay to identify small molecule agonists of the farnesoid-X-receptor (FXR) signaling pathway - cell viability counter screen (AID 743218); details: FXR-bla HEK293T viability, CellTiter-Glo luminescence, 16 h; viability change, negative = cytotoxic: at 62.6 µM (top of the series) unless noted; further: nearly all actives have a fitted effect of over 45% in size
# Outline: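 FXR-UAS-bla HEK 293T cells, plated 5 h at 37 C, were exposed to compounds for 16 h at 37 C. CellTiter-Glo was then added to the same wells as the bla readout; luminescence read after 30 min at room temperature.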
# [10] = target: Vitamin D3 receptor (Homo sapiens) (UniProt P11473); experiment: qHTS assay to identify small molecule agonists of the vitamin D receptor (VDR) signaling pathway (AID 743222; calls by dose curve); details: HEK293T VDR-UAS-bla, beta-lactamase FRET ratio, 16 h; activation: at 63.5 µM (top of the series) unless noted
# Sequence of UniProt P11473 (P11473 whole entry, looked up): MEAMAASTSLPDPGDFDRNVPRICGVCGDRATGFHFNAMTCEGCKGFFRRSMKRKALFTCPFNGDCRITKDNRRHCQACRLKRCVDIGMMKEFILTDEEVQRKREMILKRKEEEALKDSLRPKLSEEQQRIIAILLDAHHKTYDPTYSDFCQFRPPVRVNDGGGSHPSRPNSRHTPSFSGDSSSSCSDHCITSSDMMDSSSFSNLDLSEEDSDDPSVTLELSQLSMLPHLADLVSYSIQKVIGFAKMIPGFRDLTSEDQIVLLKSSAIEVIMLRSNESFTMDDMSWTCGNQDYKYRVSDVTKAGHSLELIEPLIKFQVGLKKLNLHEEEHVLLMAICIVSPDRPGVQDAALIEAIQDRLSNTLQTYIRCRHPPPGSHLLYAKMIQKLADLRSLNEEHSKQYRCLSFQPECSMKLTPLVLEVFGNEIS
# Outline: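 VDR-bla cells were plated 4 h at 37C/5% CO2, then exposed to compounds in DMSO for 16 h. After LiveBLAzer B/G FRET substrate addition and 2 h at room temperature, beta-lactamase reporter fluorescence was read.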
# [11] = target: Vitamin D3 receptor (Homo sapiens) (UniProt P11473); experiment: qHTS assay to identify small molecule antagonists of the vitamin D receptor (VDR) signaling pathway (AID 743223; active means well fitted inhibition curve with a large enough effect in the signal ratio in the repeat runs, not every such curve was filed as active; inconclusive means weak or mixed curves, or effect the other way; inactive means no such curve, though single readings can be large or run the other way; the % refers to the signal ratio); details: VDR-UAS-bla HEK293T, beta-lactamase FRET ratio, 16 h; activity change, negative = inhibition: at 61 µM (top of the series) unless noted
# Outline: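 Reporter line VDR-bla; stimulus 1alpha,25-(OH)2 vitamin D3, 3 nM final; compound co-addition, 16 h 37C/5% CO2; LiveBLAzer B/G substrate 2 h RT; fluorescence intensity.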
# [12] = qHTS assay to identify small molecule antagonists of the farnesoid-X-receptor (FXR) signaling pathway - cell viability counter screen (AID 743221; active means well fitted cell-killing curve with a large enough effect in the repeat runs, not every such curve was filed as active; inconclusive means weak or mixed curves, or effect the other way; inactive means no such curve, though single readings can be large or run the other way; further: nearly all actives have a fitted effect of over 50% in size); details: FXR-bla HEK293T viability, CellTiter-Glo luminescence, 16 h; activity change, negative = cytotoxicity: at 62.6 µM (top of the series) unless noted
# Outline: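 After a 5 h settling period, FXR-bla HEK 293T cells receive compound and chenodeoxycholic acid (50 uM final) and incubate 16 h at 37 C; CellTiter-Glo luminescence, read after 30 min at room temperature, reports cell viability.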
# [13] = target: Bile acid receptor (Homo sapiens) (UniProt Q96RI1); experiment: qHTS assay to identify small molecule antagonists of the farnesoid-X-receptor (FXR) signaling pathway (AID 743217; active means well fitted inhibition curve with a large enough effect in the signal ratio in the repeat runs, not every such curve was filed as active; inconclusive means weak or mixed curves, or effect the other way; inactive means no such curve, though single readings can be large or run the other way; the % refers to the signal ratio); details: HEK293T FXR-UAS-bla, beta-lactamase ratio, CDCA-stimulated, 16 h; activity change, negative = inhibition: at 62.6 µM (top of the series) unless noted
# Sequence of UniProt Q96RI1 (Q96RI1 whole entry, looked up): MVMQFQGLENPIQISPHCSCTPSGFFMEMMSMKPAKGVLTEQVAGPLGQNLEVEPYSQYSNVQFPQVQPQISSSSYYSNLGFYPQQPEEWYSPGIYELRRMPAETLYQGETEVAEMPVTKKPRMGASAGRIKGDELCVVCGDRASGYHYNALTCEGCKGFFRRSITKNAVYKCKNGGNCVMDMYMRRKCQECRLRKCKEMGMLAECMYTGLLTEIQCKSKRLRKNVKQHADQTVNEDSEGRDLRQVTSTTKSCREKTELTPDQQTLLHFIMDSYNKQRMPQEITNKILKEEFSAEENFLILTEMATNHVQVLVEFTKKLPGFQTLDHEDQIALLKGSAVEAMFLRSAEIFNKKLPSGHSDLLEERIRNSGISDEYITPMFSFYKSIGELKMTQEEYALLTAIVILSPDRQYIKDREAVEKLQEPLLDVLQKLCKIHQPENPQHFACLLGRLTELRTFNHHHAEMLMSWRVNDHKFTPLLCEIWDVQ
# Outline: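 FXR-UAS-bla HEK 293T cells pre-incubated 5 h at 37 °C, then exposed to compounds with chenodeoxycholic acid (50 uM final) for 16 h at 37 °C. Beta-lactamase reporter read by LiveBLAzer B/G FRET substrate fluorescence after 2 h at room temperature.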
# [14] = qHTS assay to identify small molecule agonists of the vitamin D receptor (VDR) signaling pathway - cell viability counter screen (AID 743224); details: VDR-bla HEK293T viability, CellTiter-Glo luminescence, 16 h; activity change, negative = cytotoxicity: at 62.6 µM (top of the series); further: nearly all actives have a fitted effect of over 50% in size
# Outline: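 VDR-bla cells were preincubated 4 h at 37C/5% CO2, then exposed to compounds for 16 h. After the 2 h room-temperature bla FRET read, CellTiter-Glo was added to the same wells and luminescence read after 30 min.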
# [15] = target: Bile acid receptor (Homo sapiens) (UniProt Q96RI1); experiment: qHTS assay to identify small molecule agonists of the farnesoid-X-receptor (FXR) signaling pathway (AID 743220; active means well fitted activation curve with a large enough effect in the signal ratio in the repeat runs, not every such curve was filed as active; inconclusive means weak or mixed curves, or effect the other way; the % refers to the signal ratio); details: HEK293T FXR-UAS-bla, beta-lactamase FRET ratio, 16 h; activation: at 62.6 µM (top of the series) unless noted
# Outline: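 Beta-lactamase reporter under UAS control in GeneBLAzer FXR HEK 293T cells (5000/well) measured with LiveBLAzer FRET substrate after 2 h at room temperature. Compound exposure lasted 16 h at 37C.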
# [16] = activation: at 73.3 µM (top of the series) unless noted
# Potency means the concentration at half of the fitted maximal effect; tags describe the fitted curve by direction and shape or compound fluorescence and quenching.
smiles,measurement,setting,value
CCC(C(=O)NC(N)=O)c1ccccc1 (stereo not drawn),activation,[1]; [16],inconclusive: -16.4%
same,Potency,[2],"inconclusive: 0.0024 µM [cytotoxic, full curve, poor fit]"
same,"ratio activity, negative = inhibition",[3],inconclusive: -12.2%
CC1(C)CC(OC(=O)CCCCCCCCC(=O)OC2CC(C)(C)NC(C)(C)C2)CC(C)(C)N1,activation,[1]; [16],inconclusive: -15.5% [at 34.3 µM]
same,Potency,[4],inactive
same,Potency,[5],inactive
same,Potency,[3],"inconclusive: 7.51 µM [rising, partial curve, poor fit]"
Cc1ccccc1S(N)(=O)=O,activation,[1]; [16],inconclusive: -10.6%
COc1cc(OC)cc(OC)c1,Potency,[1]; [16],inactive
same,Potency,[2],inactive
same,Potency,[6],"inconclusive: 13.3 µM [rising, single point]"
CCCCC(CC)COC(=O)c1ccccc1C(=O)O (stereo not drawn),Potency,[1]; [16],"inconclusive: 44 µM [rising, partial curve, poor fit]"
same,Potency,[7],"inconclusive: 22.1 µM [cytotoxic, partial curve, poor fit]"
same,Potency,[4],"inconclusive: 62.5 µM [rising, partial curve, poor fit]"
same,Potency,[5],"inconclusive: 62.8 µM [cytotoxic, partial curve, poor fit]"
same,Potency,[6],active: 49.9 µM
same,Potency,[8],"inconclusive: 1.98 µM [cytotoxic, full curve, poor fit]"
same,Potency,[9],"inconclusive: 0.0177 µM [rising, full curve, poor fit]"
same,Potency,[10],"inconclusive: 0.002 µM [fluorescent, full curve, poor fit]"
same,Potency,[11],"inconclusive: 0.995 µM [fluorescent, partial curve, poor fit]"
Cc1ccc(Cl)c(N)c1Cl,Potency,[1]; [16],"inconclusive: 48.6 µM [rising, partial curve, poor fit]"
same,Potency,[4],"inconclusive: 54.9 µM [activator, single point]"
same,Potency,[5],"inconclusive: 54.9 µM [cytotoxic, single point]"
same,Potency,[8],"inconclusive: 54.9 µM [cytotoxic, single point]"
same,Potency,[3],"inconclusive: 54.9 µM [inhibitor, single point]"
same,Potency,[9],"inconclusive: 19.5 µM [rising, single point]"
O=[N+]([O-])c1cc(N(CCO)CCO)ccc1NCCO,Potency,[1]; [16],"inconclusive: 68.5 µM [rising, partial curve, poor fit]"
same,Potency,[4],inconclusive: 59.3 µM [activator]
same,Potency,[8],"inconclusive: 489 nM [cytotoxic, single point] and inactive"
same,Potency,[12],"inconclusive: 43.6 µM [falling, partial curve, poor fit]"
C=C(C)C(=O)OCC(CC)(COC(=O)C(=C)C)COC(=O)C(=C)C,Potency,[1]; [16],inactive
same,Potency,[7],"inconclusive: 9.93 µM [cytotoxic, full curve, poor fit]"
same,Potency,[4],inconclusive: 26.4 µM and inconclusive: 32.8 µM
same,Potency,[8],"inconclusive: 5.4 µM [cytotoxic, single point]"
same,"activity change, negative = inhibition",[13],inconclusive: 6.42%
same,Potency,[14],inactive
CCOC(=O)/C=C/C(=O)OCC,Potency,[1]; [16],"inconclusive: 12.2 µM [rising, full curve]"
C/C=C/C=C/C(=O)O,Potency,[1]; [16],"inconclusive: 24.3 µM [rising, partial curve]"
same,activation,[1]; [16],inconclusive: 8.9%
same,activation,[1]; at 8.36 µM (top of the series),inactive: 7.69%
same,Potency,[4],inactive
same,Potency,[5],"inconclusive: 21.9 µM [cytotoxic, partial curve, poor fit]"
same,activation,[10],inconclusive: 2.62% [at 6.01 µM]
same,Potency,[11],inactive
NCCCC(O)(P(=O)(O)O)P(=O)(O)O,Potency,[1]; [16],inactive
same,Potency,[2],"inconclusive: 7.5 µM [cytotoxic, full curve]"
same,Potency,[8],inactive
same,Potency,[9],inactive
Cc1cc(C)c(O)c(C)c1,activation,[1]; [16],inconclusive: -8.53%
same,activation,[1]; at 73.3 µM (top of the series),inactive: 7.37%
same,Potency,[13],inactive
c1ccc2cc3c4ccccc4c4ccccc4c3cc2c1,Potency,[1]; [16],active: 1.94 µM
same,Potency,[7],"inconclusive: 49.2 µM [cytotoxic, partial curve]"
same,Potency,[4],inconclusive: 55.2 µM
C=CCN1C[C@H](C(=O)N(CCCN(C)C)C(=O)NCC)C[C@@H]2c3cccc4[nH]cc(c34)C[C@H]21,Potency,[1]; [16],inactive
same,Potency,[2],inactive
same,Potency,[5],"inconclusive: 33.5 µM [cytotoxic, partial curve, poor fit]"
same,Potency,[8],"inconclusive: 10.6 µM [cytotoxic, partial curve, poor fit]"
same,Potency,[3],inactive
same,Potency,[12],inactive
same,Potency,[11],inactive
c1ccc(CCCc2ccncc2)cc1,activation,[1]; [16],inconclusive: 15.3%
same,Potency,[4],inconclusive: 49 µM [activator]
same,"ratio activity, negative = inhibition",[3],inconclusive: -25%
same,Potency,[13],inconclusive: 38.9 µM [partial curve]
same,Potency,[15],active: 49 µM
O=c1oc(=O)c2cc3c(=O)oc(=O)c3cc12,Potency,[1]; [16],active: 2.73 µM
same,activation,[1]; [16],inconclusive: 15.3%
same,Potency,[2],"inconclusive: 24.3 µM [cytotoxic, single point]"
same,Potency,[6],inactive
same,"viability change, negative = cytotoxic",[9],inconclusive: -31.6% [cytotoxic] and inconclusive: -30.7% [cytotoxic]
same,Potency,[10],"inconclusive: 54.9 µM [activator, single point]"
same,Potency,[14],"inconclusive: 48.9 µM [rising, single point]"
